Test results: a collection of fitness landscapes (doi:10.1016/j.celrep.2020.107928)
Over roughly 81,000 sequences, “one-hybrid fitness for binding parS DNA” has its median near -0.17; the highest 2% begin near 0.51. This is one part of the list.

B1: Caulobacter ParB omega fusion; a variant is named by its letters at X, in order, B8GW30 (parent)
chain: MESVVVGEPGMSEGRRGLGRGLSALLGEVDAAPAQAPGEQLGGSREAPIEILQRNPDQPRRTFREEDLEDLSNSIREKGVLQPILVRPSPDTAGEYQIVAGERAWRAAQRAGLKTVPIMVRELDDLAVLEIGIIENVQRADLNVLEEALSYKVLMEKFERTQENIAQTIGKSXSHVANXMRLLXLPDEVQSYLVSGELTAXHARAIAAAADPVALAKQIIEGGLSVRETEALARKAPNLSAGKSKGGRPPRVKDTDTQALESDLSSVLGLDVSIDHRGSTGTLTITYATLEQLDDLCNRLTRGI

Variants of: B1
Experiment: one-hybrid fitness for binding parS DNA (scaled: cognate 1, non-cognate 0); higher = stronger binding
Settings: with parS DNA site
Outline: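 Pre- and post-selection plasmids were Illumina-sequenced, three replicate libraries were pooled, and any variant with under 10 reads was removed. The libraries were Caulobacter ParB with four specificity codons randomised, selected in E. coli USO through a HIS3 reporter whose site is 19 bp from the promoter. Cells grew 48 hours at 37°C on M9 without histidine, with 0.1 mM IPTG and 5 mM 3-AT. Fitness is the log change in variant-to-wild-type read ratio, rescaled against cognate and non-cognate.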

Row | Variant | one-hybrid fitness for binding parS DNA
1 | HSHC | ≤ 0.2
2 | PVAI | ≤ 0.2
3 | PIDT | ≤ 0.2
4 | RIHP | ≤ 0.2
5 | MQMT | ≤ 0.2
6 | ASNT | ≤ 0.2
7 | NSST | ≤ 0.2
8 | RWRD | ≤ 0.2
9 | QCDL | ≤ 0.2
10 | LGVF | ≤ 0.2
11 | DTRA | ≤ 0.2
12 | AIED | ≤ 0.2
13 | SDIF | ≤ 0.2
14 | VPPN | ≤ 0.2
15 | LWHS | ≤ 0.2
16 | IWPG | ≤ 0.2
17 | WSHC | ≤ 0.2
18 | CTQC | ≤ 0.2
19 | RQVA | 0.486
20 | CKVC | ≤ 0.2
21 | NEGT | 0.217
22 | WLNL | ≤ 0.2
23 | KVCI | ≤ 0.2
24 | YCRT | ≤ 0.2
25 | AYRL | ≤ 0.2
26 | RQMF | 0.216

Row | Variant | one-hybrid fitness for binding parS DNA
27 | QCYA | ≤ 0.2
28 | TRQV | ≤ 0.2
29 | DNGV | ≤ 0.2
30 | TREI | ≤ 0.2
31 | VEET | ≤ 0.2
32 | LLVE | ≤ 0.2
33 | SFSW | ≤ 0.2
34 | DMQR | ≤ 0.2
35 | ENHM | ≤ 0.2
36 | LVLG | ≤ 0.2
37 | PFVS | ≤ 0.2
38 | LQLC | ≤ 0.2
39 | IIPG | ≤ 0.2
40 | SPPW | ≤ 0.2
41 | EIVS | ≤ 0.2
42 | LRHN | ≤ 0.2
43 | PHLV | ≤ 0.2
44 | IRRL | ≤ 0.2
45 | PQKH | ≤ 0.2
46 | FRVV | ≤ 0.2
47 | RRHQ | ≤ 0.2
48 | ENNG | ≤ 0.2
49 | RPSG | ≤ 0.2
50 | LPTH | ≤ 0.2
51 | FCAR | ≤ 0.2
52 | SKWT | ≤ 0.2

Row | Variant | one-hybrid fitness for binding parS DNA
53 | KMTA | ≤ 0.2
54 | YIMT | ≤ 0.2
55 | MLRA | ≤ 0.2
56 | CLIC | ≤ 0.2
57 | TGKC | ≤ 0.2
58 | DDSA | ≤ 0.2
59 | KVVI | ≤ 0.2
60 | GKGT | ≤ 0.2
61 | QARD | ≤ 0.2
62 | REGL | ≤ 0.2
63 | PSWC | ≤ 0.2
64 | ELSY | ≤ 0.2
65 | TDQN | ≤ 0.2
66 | WQLC | ≤ 0.2
67 | VSAN | ≤ 0.2
68 | KHGR | ≤ 0.2
69 | CKNT | ≤ 0.2
70 | LRLQ | ≤ 0.2
71 | SYVF | ≤ 0.2
72 | RWIT | 0.387
73 | FSGS | ≤ 0.2
74 | NLRD | ≤ 0.2
75 | PFRL | ≤ 0.2
76 | RWKV | ≤ 0.2
77 | TSAH | ≤ 0.2
78 | YRYC | ≤ 0.2

Row | Variant | one-hybrid fitness for binding parS DNA
79 | LPGS | ≤ 0.2
80 | FSNT | ≤ 0.2
81 | WPNS | ≤ 0.2
82 | SMLV | ≤ 0.2
83 | LPPQ | ≤ 0.2
84 | MEDL | ≤ 0.2
85 | HKCY | ≤ 0.2
86 | SNAP | ≤ 0.2
87 | IPFS | ≤ 0.2
88 | NDFG | ≤ 0.2
89 | QCKR | ≤ 0.2
90 | QHDN | ≤ 0.2
91 | WEMC | ≤ 0.2
92 | MRGS | ≤ 0.2
93 | AKSH | ≤ 0.2
94 | FPSM | ≤ 0.2
95 | DMAY | ≤ 0.2
96 | YSVT | ≤ 0.2
97 | AFPA | ≤ 0.2
98 | HQAC | ≤ 0.2
99 | NPKH | ≤ 0.2
100 | MPHR | ≤ 0.2
101 | CFNA | ≤ 0.2
102 | PGAY | ≤ 0.2
103 | RLEA | 0.567
104 | SMSC | ≤ 0.2

Row | Variant | one-hybrid fitness for binding parS DNA
105 | QKGP | ≤ 0.2
106 | WMHG | ≤ 0.2
107 | TSPL | ≤ 0.2
108 | RIQI | ≤ 0.2
109 | ITGL | ≤ 0.2
110 | KPEL | ≤ 0.2
111 | CNHS | ≤ 0.2
112 | LSLG | ≤ 0.2
113 | TKPI | ≤ 0.2
114 | HIRH | ≤ 0.2
115 | PLST | ≤ 0.2
116 | GFAR | ≤ 0.2
117 | LSVE | ≤ 0.2
118 | PAHM | ≤ 0.2
119 | YITR | ≤ 0.2
120 | TNRL | ≤ 0.2
121 | VFTD | ≤ 0.2
122 | RVPT | 0.529
123 | TAED | ≤ 0.2
124 | VAKA | ≤ 0.2
125 | EVSW | ≤ 0.2
126 | PFST | ≤ 0.2
127 | AACV | ≤ 0.2
128 | KPST | ≤ 0.2
129 | IASG | ≤ 0.2
130 | ARCY | ≤ 0.2

Row | Variant | one-hybrid fitness for binding parS DNA
131 | MCHG | ≤ 0.2
132 | DVFL | 0.324
133 | IAGE | ≤ 0.2
134 | SITF | ≤ 0.2
135 | SHLC | ≤ 0.2
136 | GQET | ≤ 0.2
137 | MTNT | ≤ 0.2
138 | KFRV | ≤ 0.2
139 | THVW | ≤ 0.2
140 | NPAW | ≤ 0.2
141 | SPSN | ≤ 0.2
142 | SGQI | ≤ 0.2
143 | KMQA | 0.231
144 | TGTD | ≤ 0.2
145 | QSAC | ≤ 0.2
146 | LAPM | ≤ 0.2
147 | IYHR | ≤ 0.2
148 | WSMM | ≤ 0.2
149 | RAHD | ≤ 0.2
150 | FLMT | ≤ 0.2
151 | GTHT | ≤ 0.2
152 | YKSC | ≤ 0.2
153 | CYKS | ≤ 0.2
